Laboratory results: publication PMC4336329 (PLoS ONE, 2015)
About 2,200 (0.71%) of roughly 310,000 compounds showed an effect of 50% or more. Effects have a minus sign here. The list shows a part of the results.

These molecules were tested against human ether-à-go-go-related gene (hERG) potassium channel (human, UniProt Q12809) (assay: primary screen, population patch clamp on CHO cells stably expressing hERG).
Sequence of human ether-à-go-go-related gene (hERG) potassium channel (Q12809 whole entry, looked up): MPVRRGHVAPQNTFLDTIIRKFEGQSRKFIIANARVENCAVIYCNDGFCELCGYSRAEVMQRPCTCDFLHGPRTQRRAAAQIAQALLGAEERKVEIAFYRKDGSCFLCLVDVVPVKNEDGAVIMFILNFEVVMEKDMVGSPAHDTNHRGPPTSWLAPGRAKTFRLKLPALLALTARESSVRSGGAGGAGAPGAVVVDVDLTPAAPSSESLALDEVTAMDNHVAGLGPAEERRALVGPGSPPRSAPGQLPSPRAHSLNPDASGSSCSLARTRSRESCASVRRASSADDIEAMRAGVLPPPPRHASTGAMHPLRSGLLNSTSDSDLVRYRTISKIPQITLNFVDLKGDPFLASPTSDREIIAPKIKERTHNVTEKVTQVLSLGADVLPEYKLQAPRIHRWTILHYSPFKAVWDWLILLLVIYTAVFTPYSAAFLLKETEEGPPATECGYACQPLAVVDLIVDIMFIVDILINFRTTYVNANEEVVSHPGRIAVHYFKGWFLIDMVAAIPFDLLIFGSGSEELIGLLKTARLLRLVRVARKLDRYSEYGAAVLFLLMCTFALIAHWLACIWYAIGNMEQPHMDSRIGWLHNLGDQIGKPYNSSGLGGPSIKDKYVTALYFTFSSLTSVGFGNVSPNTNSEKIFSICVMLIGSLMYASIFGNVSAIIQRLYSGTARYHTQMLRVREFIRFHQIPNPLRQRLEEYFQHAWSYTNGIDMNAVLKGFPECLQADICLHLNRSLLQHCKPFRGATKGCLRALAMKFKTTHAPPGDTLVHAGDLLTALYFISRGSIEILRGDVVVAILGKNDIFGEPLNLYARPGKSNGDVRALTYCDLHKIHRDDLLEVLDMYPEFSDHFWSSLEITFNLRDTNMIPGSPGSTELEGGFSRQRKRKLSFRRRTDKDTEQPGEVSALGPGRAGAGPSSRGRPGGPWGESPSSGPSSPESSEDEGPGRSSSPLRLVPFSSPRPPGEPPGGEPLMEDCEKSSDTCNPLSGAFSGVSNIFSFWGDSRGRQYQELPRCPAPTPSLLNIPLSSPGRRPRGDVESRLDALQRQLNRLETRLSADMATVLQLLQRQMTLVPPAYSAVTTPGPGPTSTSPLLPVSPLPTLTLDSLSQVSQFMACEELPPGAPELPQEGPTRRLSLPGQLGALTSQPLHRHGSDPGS

Structure (SMILES)	hERG current change (%, negative = inhibition) at 1uM
O=C(COC(=O)Cn1cnc2ccccc2c1=O)Nc1ccc(Cl)c(C(F)(F)F)c1	2.13%
Cc1ccccc1NC(=O)C(Cl)=C(Cl)Cl	11.6%
COc1ccc(C(=O)CSc2ccc(-c3ccco3)nn2)cc1	-6.45%
CCn1cc(CNC(=O)/C=C/c2ccc([N+](=O)[O-])cc2)cn1	4.05%
CC(=O)Nc1ccc(C(=O)OCc2ccc(Cl)cc2)cc1	2.27%
COc1cc(Br)c(CN2C(=O)NC3(CCCCCC3)C2=O)cc1OC	14.5%
CC(C)CCN(C(=O)CNC(=O)c1ccco1)C(C(=O)NC1CCCCC1)c1ccco1 (stereo not drawn)	1.84%
COc1ccc([C@@H]2CC=C(C(=O)O)[C@H](c3ccccc3)N2S(=O)(=O)c2ccc(C)cc2)cc1OC	8.43%
CCN1C(=O)[C@H]2[C@@H](c3ccc(C)cc3)N3C(=O)N(c4ccc(OC)cc4)C(=O)[C@@]3(C)[C@H]2C1=O	9.86%
CC1=NN(C(N)=S)C(=O)C1N=Nc1ccc(Cl)cc1 (stereo not drawn)	6.7%
COC(=O)CCNC(=O)c1nn(Cc2ccccc2)c(=O)c2ccccc12	8.03%
COc1ccc(NC(=O)CN2CCc3ccccc3C2)cc1S(=O)(=O)N1CCOCC1	1.41%
CC1CC(C)(C)NC(=S)N1CCCC(=O)Nc1ccc2c(c1)OCCO2 (stereo not drawn)	4.15%
CCOC(=O)c1nn(-c2ccc(F)cc2)c(=O)c(C#N)c1C	40.1%
COc1ccc(S(=O)(=O)NC(C)C(=O)Nc2cccc(C(C)=O)c2)cc1 (stereo not drawn)	4.36%
CC(CC(=O)Nc1ccc2c(c1)OCO2)c1ccccc1 (stereo not drawn)	3.96%
O=C(N/N=C/C=C/c1ccccc1[N+](=O)[O-])c1cc(-c2ccccc2)n[nH]1	9.72%
CCOc1ccc(Nc2nc(N)c3ccccc3n2)cc1.Cl	3.67%
COCCn1c(SCc2cc(=O)n3cc(C)ccc3n2)nc2ccccc2c1=O	7.79%
O=C(c1ccccc1)N1CCN(Cc2cccc(Oc3ccccc3)c2)CC1	1.26%
N#Cc1cccc(NC(=O)Nc2cccs2)c1	15.1%
C/C(=C1/SC(=S)N(CCC(=O)O)C1=O)c1ccc(O)cc1	10.3%

Structure (SMILES)	hERG current change (%, negative = inhibition) at 1uM
Cc1cc(N2CCN(C)CC2)nc2ccc(NC(=S)NCCC(C)C)cc12	-0.13%
CO[C@H]1[C@@H](OC)CC(OC2OC(CO)C(O)C(O)C2O)/C(=C\C#N)[C@@H]1O (stereo partly drawn)	12.2%
O=C(O)C(=O)O.O=C(c1ccco1)N1CCN(Cc2cccnc2)CC1	4.97%
CCc1ccccc1NC(=O)CCN1C(=O)C2CC=CCC2C1=O (stereo not drawn)	14%
CCC1=Nc2cc(C(=O)NCCCOC(C)C)ccc2Sc2ccccc21	10.9%
CCCn1nc(C(=O)NNC(=O)CCCOc2ccc(OC)cc2)c2ccccc2c1=O	-4.01%
CCOc1ccc(NC(=O)NC(C)c2ccc3c(c2)OCO3)cc1 (stereo not drawn)	10.1%
O=C(CN1C(=O)c2ccccc2C1=O)Nc1ccc(-c2nc3ccccc3o2)cc1	2.99%
Cc1ccc(N(CC(=O)Nc2cc(C)cc(C)c2)S(=O)(=O)c2cccc3nonc23)cc1	10.3%
COc1ccc([C@H]2CC(=O)C=C(c3ccc(Cl)c(Cl)c3)C2)cc1	18.1%
Cc1ccc(OCC(=O)c2cc(C)n(CC(F)(F)F)c2C)c([N+](=O)[O-])n1	12.1%
COc1ccc(NC(=O)CSc2nnc3ccc(-c4ccccn4)nn23)c(OC)c1	13.4%
COc1cccc(CNC(=O)CCNC(=O)C2CCN(S(=O)(=O)c3ccccc3)CC2)c1	7.83%
O=C1c2ccccc2C(=O)N1OCCOCCOCCBr	5.48%
COc1ccc(OC)c(CN2CCN(CCc3ccccc3)C(CCO)C2)c1 (stereo not drawn)	-24.6%
O=C1NCCCc2nc(Oc3ccccc3)sc21	10.2%
CN=C1c2ccccc2CN1c1cccc(C(=O)OC)c1	-0.628%
Cc1sc2nc(CN(C(=O)NC3CCCCC3)C3CCCCC3)[nH]c(=O)c2c1C	-1.69%
COc1ccc(-c2csc(Cc3nc(O)cs3)n2)cc1	13.3%
CCOC(=O)C1CCN(Cc2ccc(C(=O)OC)cc2)CC1	1.03%
Cc1nc(CCNC(=O)C2CCC(=O)N(CCc3cccc(F)c3)C2)sc1C (stereo not drawn)	7.18%
O=C(O)CC(C(=O)O)N1C(=O)/C(=C/C=C/c2ccco2)SC1=S (stereo not drawn)	8.65%

Structure (SMILES)	hERG current change (%, negative = inhibition) at 1uM
Cc1ccc2nc3c(cc2c1)c(NS(=O)(=O)c1ccccc1)nn3CC(C)C	-0.817%
Fc1ccc(-c2csc3ncnc(Cl)c23)cc1	6.26%
O=C(O)CSc1nnc(Cc2ccccc2)n1-c1ccccc1	8.05%
CCOC(=O)c1ccc(NC(=O)C2CCN(C(=O)c3ccc(OC)c(OC)c3)CC2)cc1	-19%
COc1cc(OC)cc(-c2c(C#Cc3ccsc3)c3cc(-c4ccc5cc[nH]c5c4)ccc3n2C)c1	18.7%
O=C(Nc1ccncc1)C1COc2ccccc2O1 (stereo not drawn)	1.88%
C=CCSc1nnc(Cn2c(=O)sc3ccccc32)n1C	-6.54%
COC(=O)[C@@]12CCCN1[C@H](c1ccc(-c3ccccc3)cc1)[C@@H]1C(=O)N(C)C(=O)[C@@H]12.O=C(O)C(F)(F)F	10.7%
COc1ccc(/C(O)=C2\C(=O)C(=O)N(c3cc(C)on3)C2c2ccccc2OC)cc1 (stereo not drawn)	10.6%
Cl.OCCN(CCO)CC(O)CN(c1ccccc1)c1ccccc1 (stereo not drawn)	8.22%
O=C(NNc1ccccc1Cl)C(O)(c1cccc(C(F)(F)F)c1)c1cccc(C(F)(F)F)c1	8.29%
CC(C)(C)c1o[nH]c(=O)c1CC(N)C(=O)O (stereo not drawn)	15.7%
COc1cc(NC(=O)c2cc3nc(C)cc(C)n3n2)c(OC)cc1Cl	2.31%
FC(F)(F)c1cc(CCN2C(=S)NC[C@@H]2CC2CCCCC2)cc(C(F)(F)F)c1	6.29%
CC(C)CC(=O)Nc1ccccc1-c1nnn(CC(=O)N2CCc3ccccc3C2)n1	9.6%
COc1ccc(N/C=C2/Sc3ccccc3NC2=O)cc1	18.5%
C=CCC1(CC=C)CCCN1C(=O)CC1C(=O)NCCN1Cc1ccccc1OC (stereo not drawn)	-0.572%
CCCCN(CCCC)C(=O)c1ccccc1NC(=O)CN1C(=O)c2ccccc2C1=O	0.393%
Fc1cccc(NC(=S)NCCc2ccccc2)c1	6.27%
O=C(NCCCN1CCOCC1)c1ccc2c(c1)N(Cc1ccc(F)cc1)CCS2	14.1%
Cl.OC12ONC(c3ccccn3)C1N1CCC2CC1 (stereo not drawn)	12.2%
CCCCc1c(O)nc(SCC(=O)NCCc2ccc(OC)c(OC)c2)[nH]c1=O	0.245%

Structure (SMILES)	hERG current change (%, negative = inhibition) at 1uM
CCc1ccc(-c2ccc3nnc(SCC(=O)NCC4CCCO4)n3n2)cc1 (stereo not drawn)	-18.9%
C=CCn1c(Cc2ccccc2)nnc1SCc1nc2ccccc2c(=O)[nH]1	18.5%
O=C1Nc2ccccc2N(O)N1c1cc(-c2cccc(Cl)c2)no1	11.3%
Cc1oc(-c2ccccc2Cl)nc1CN1C(=O)CN=C(c2ccccc2)c2ccccc21	9.3%
NC(=O)COC(=O)c1ccc2c(c1)S(=O)(=O)N=C1CCCCCN12	11%
OC(CNCc1ccccc1F)COc1cccc2ccccc12 (stereo not drawn)	-0.346%
CCOc1ccccc1/C=N/NC(=O)c1nnn(-c2nonc2N)c1CN1CCCC1	23.5%
O=C(N/N=C/c1c[nH]c2ccccc12)c1cc(-c2ccc3ccccc3c2)n[nH]1	11.6%
Cc1ccc(C(=O)Nc2ccc(Nc3ccccc3)cc2)cc1C	20.3%
CCOCCn1c(N2CCN(c3ccccc3)CC2)nc2c1c(=O)[nH]c(=O)n2C	0.691%
Cc1[nH]c2ccccc2c1C(c1ccncc1)N1CCCCC1 (stereo not drawn)	-0.231%
NC(=O)c1ccccc1	16%
CN(c1ccccc1)S(=O)(=O)c1ccc(C(=O)OCC(=O)N2CCOCC2)cc1	11.5%
COc1ccc2nc(SCCN(C)C)[nH]c2c1.Cl	14.1%
CN(C)c1nc(NC(C)(C)C)nc(SCC(=O)Nc2ccccc2)n1	7.15%
CCOc1cc2[nH]c(=O)n(CCCC(=O)NCc3ccco3)c(=O)c2cc1OCC	6.78%
CCOc1cc(CNCCc2ccc(S(N)(=O)=O)cc2)ccc1OCc1ccccc1.Cl	-26%
CCOC(=O)C1=C(O)/C(=C\c2cccs2)N=C1C	5.88%
Cc1ccc(S(=O)(=O)N2CCCC(C(=O)Nc3ccc(NC(=O)c4ccccn4)cc3)C2)cc1 (stereo not drawn)	9.61%
CS/C(=N\S(=O)(=O)c1ccccc1)c1ccccc1	14.6%
CCC(=O)N(Cc1cccs1)C1CCOC(C)(C)C1 (stereo not drawn)	12.6%
